Patent US20250059278A1 (SICHUAN HUIYU PHARMACEUTICAL, published 2025)

B1: CD3-MSLN bispecific antibody B1 (bispecific antibody, human IgG1, lambda)
heavy: EVQLVESGGGLVQPGGSLRLSCAASGFTFNTYAMNWVRQAPGKGLEWVARIRSKYNNYATYYADSVKGRFTISRDDSKSILYLQMNNLKTEDTAMYYCVRHANFLNSYVSWFAYWGQGTLVTVSSASTKGPSVFPLAPSSKSTSGGTAALGCLVKDYFPEPVTVSWNSGALTSGVHTFPAVLQSSGLYSLSSVVTVPSSSLGTQTYICNVNHKPSNTKVDKKV[letters of human IgG1 Fc with changes omitted]GGGGSGGGGSEVQLVESGGGLVQAGESLRLSCAVSGNIGSIRHMGWHRQDPGKERELVATITTVGTTYYANFVKGRFTISRDNAKNTVYLQMNSLKPEDTGVYYCRATAHPTDYWGQGTQVTVSS
light: [letters of about 100 residues omitted][letters of about 100 residues omitted]
notes: [VH1]-[CH]-[L]-[3C6 VHH] with [VL-1]-[CL]
B2: CD3-MSLN bispecific antibody B8 (bispecific antibody, human IgG1, lambda)
heavy: EVQLVESGGGLVQPGGSLRLSCAASGFTFNTYAMNWVRQAPGKGLEWVARIRSKYNNYATYYADSVKDRFTISRDDSKSSLYLQMNNLKTEDTAMYYCVRHGNFGNTYVSWFAMWGQGTLVTVSSASTKGPSVFPLAPSSKSTSGGTAALGCLVKDYFPEPVTVSWNSGALTSGVHTFPAVLQSSGLYSLSSVVTVPSSSLGTQTYICNVNHKPSNTKVDKKV[letters of human IgG1 Fc with changes omitted]GGGGSGGGGSEVQLVESGGGLVQAGESLRLSCAVSGNIGSIRHMGWHRQDPGKERELVATITTVGTTYYANFVKGRFTISRDNAKNTVYLQMNSLKPEDTGVYYCRATAHPTDYWGQGTQVTVSS
light: [letters of about 100 residues omitted][letters of about 100 residues omitted]
notes: [VH8]-[CH]-[L]-[3C6 VHH] with [VL-1]-[CL]
B3: CD3-MSLN bispecific antibody B13 (bispecific antibody, human IgG1, lambda)
heavy: EVQLVESGGGLVQPGGSLRLSCAASGFTFNTYAMNWVRQAPGKGLEWVARIRSKYNNYATYYADSVKGRFTISRDDSKSSLYLQMNSLKTEDTAVYYCVRHGNFKNSYGSWFAYWGQGTLVTVSSASTKGPSVFPLAPSSKSTSGGTAALGCLVKDYFPEPVTVSWNSGALTSGVHTFPAVLQSSGLYSLSSVVTVPSSSLGTQTYICNVNHKPSNTKVDKKV[letters of human IgG1 Fc with changes omitted]GGGGSGGGGSEVQLVESGGGLVQAGESLRLSCAVSGNIGSIRHMGWHRQDPGKERELVATITTVGTTYYANFVKGRFTISRDNAKNTVYLQMNSLKPEDTGVYYCRATAHPTDYWGQGTQVTVSS
light: [letters of about 100 residues omitted][letters of about 100 residues omitted]
notes: [VH13]-[CH]-[L]-[3C6 VHH] with [VL-1]-[CL]
B4: CD3-MSLN bispecific antibody B22 (bispecific antibody, human IgG1, lambda)
heavy: EVQLVESGGGLVQPGGSLRLSCAASGFTFNTYAMNWVRQAPGKGLEWVARIRSKYNNYATYYADSVKGRFTISRDDSKSILYLQMNSLKTEDTAMYYCVRHERFGNSYVSWFAYWGQGTLVTVSSASTKGPSVFPLAPSSKSTSGGTAALGCLVKDYFPEPVTVSWNSGALTSGVHTFPAVLQSSGLYSLSSVVTVPSSSLGTQTYICNVNHKPSNTKVDKKV[letters of human IgG1 Fc with changes omitted]GGGGSGGGGSEVQLVESGGGLVQAGESLRLSCAVSGNIGSIRHMGWHRQDPGKERELVATITTVGTTYYANFVKGRFTISRDNAKNTVYLQMNSLKPEDTGVYYCRATAHPTDYWGQGTQVTVSS
light: [letters of about 100 residues omitted][letters of about 100 residues omitted]
notes: [VH22]-[CH]-[L]-[3C6 VHH] with [VL-1]-[CL]
B5: CD3-MSLN bispecific antibody B27 (bispecific antibody, human IgG1, lambda)
heavy: EVQLVESGGGLVQPGGSLRLSCAASGFTFNTYAMNWVRQAPGKGLEWVARIRSKYNNYATYYADSVKGRFTISRDDSKSILYLQMNSLKTEDTAMYYCVRHANFGNSYVSWFASWGQGTLVTVSSASTKGPSVFPLAPSSKSTSGGTAALGCLVKDYFPEPVTVSWNSGALTSGVHTFPAVLQSSGLYSLSSVVTVPSSSLGTQTYICNVNHKPSNTKVDKKV[letters of human IgG1 Fc with changes omitted]GGGGSGGGGSEVQLVESGGGLVQAGESLRLSCAVSGNIGSIRHMGWHRQDPGKERELVATITTVGTTYYANFVKGRFTISRDNAKNTVYLQMNSLKPEDTGVYYCRATAHPTDYWGQGTQVTVSS
light: [letters of about 100 residues omitted][letters of about 100 residues omitted]
notes: [VH27]-[CH]-[L]-[3C6 VHH] with [VL-1]-[CL]
B6: CD3-MSLN bispecific antibody B29 (bispecific antibody, human IgG1, lambda)
heavy: EVQLVESGGGLVQPGGSLRLSCAASGFTFNTYAMNWVRQAPGKGLEWVARIRSKYNNYATYYADSVKGRFTISRDDSKSILYLQMNSLKTEDTAMYYCVRHGNFPMSYVSWFAYWGQGTLVTVSSASTKGPSVFPLAPSSKSTSGGTAALGCLVKDYFPEPVTVSWNSGALTSGVHTFPAVLQSSGLYSLSSVVTVPSSSLGTQTYICNVNHKPSNTKVDKKV[letters of human IgG1 Fc with changes omitted]GGGGSGGGGSEVQLVESGGGLVQAGESLRLSCAVSGNIGSIRHMGWHRQDPGKERELVATITTVGTTYYANFVKGRFTISRDNAKNTVYLQMNSLKPEDTGVYYCRATAHPTDYWGQGTQVTVSS
light: [letters of about 100 residues omitted][letters of about 100 residues omitted]
notes: [VH29]-[CH]-[L]-[3C6 VHH] with [VL-1]-[CL]

How the values were obtained:
[1] = molecular target: T1, Human CD3εγ recombinant antigen (acrobiosystems, Cat. No. CDG-H52W5) (human, UniProt P07766 23-126; P09693 23-116); test: SPR chip (Carterra), antibody captured, antigen in flow
T1 construct: Bought recombinant protein

[2] = molecular target: T2, human MSLN recombinant antigen (acrobiosystems, Cat. No. MSN-H8223) (human, UniProt Q13421 296-580); test: SPR chip (Carterra), antibody captured, MSLN in flow
T2 construct: Bought protein
T2 sequence (Q13421 other isoform, or with tags, fused parts or gaps limits assumed): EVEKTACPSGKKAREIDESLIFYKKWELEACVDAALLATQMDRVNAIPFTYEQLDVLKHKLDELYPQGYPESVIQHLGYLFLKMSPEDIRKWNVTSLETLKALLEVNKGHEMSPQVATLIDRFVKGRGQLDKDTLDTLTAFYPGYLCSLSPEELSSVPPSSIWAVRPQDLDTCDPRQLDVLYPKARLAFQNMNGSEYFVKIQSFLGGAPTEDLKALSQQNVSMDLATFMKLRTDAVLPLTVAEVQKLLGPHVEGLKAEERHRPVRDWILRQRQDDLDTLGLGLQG

[3] = molecular target: T3, Monkey CD3 on cynomolgus HSC-F cells (cynomolgus monkey, UniProt Q95LI5 22-198; Q95LI7 23-181; Q95LI8 22-171); test: flow cytometry on HSC-F cells
T3 construct: whole, on cells; also called Monkey CD3-expressing cynomolgus HSC-F cells; cynomolgus monkey CD3-expressing HSC-F cells
T3 sequence (Q95LI5 22-198, chain 1 of 3): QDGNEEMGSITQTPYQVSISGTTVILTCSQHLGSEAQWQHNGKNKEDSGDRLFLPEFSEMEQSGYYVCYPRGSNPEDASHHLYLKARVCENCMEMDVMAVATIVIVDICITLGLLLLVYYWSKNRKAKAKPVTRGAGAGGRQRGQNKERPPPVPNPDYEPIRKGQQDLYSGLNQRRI
T3 sequence (Q95LI7 23-181, chain 2 of 3, further chain): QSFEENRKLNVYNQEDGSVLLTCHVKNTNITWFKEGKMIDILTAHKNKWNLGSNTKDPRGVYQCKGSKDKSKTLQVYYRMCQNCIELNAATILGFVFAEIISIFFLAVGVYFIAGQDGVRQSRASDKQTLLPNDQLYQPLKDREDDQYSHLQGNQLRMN
T3 sequence (Q95LI8 22-171, chain 3 of 3, further chain): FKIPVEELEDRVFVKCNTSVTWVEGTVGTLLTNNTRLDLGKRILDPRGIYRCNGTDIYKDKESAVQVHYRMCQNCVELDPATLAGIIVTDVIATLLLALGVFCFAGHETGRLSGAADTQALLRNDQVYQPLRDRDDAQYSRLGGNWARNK

[4] = molecular target: T4, Human CD3 on Jurkat cells (human, UniProt P07766; P09693; P04234); test: flow cytometry on Jurkat cells
T4 construct: whole, on cells; also called Human CD3-expressing Jurkat cells; Jurkat (naturally expressing human CD3)

[5] = molecular target: T4, Human CD3 on Jurkat cells; test: cell-based or functional assay
T4 sequence (P07766 23-207, chain 1 of 3): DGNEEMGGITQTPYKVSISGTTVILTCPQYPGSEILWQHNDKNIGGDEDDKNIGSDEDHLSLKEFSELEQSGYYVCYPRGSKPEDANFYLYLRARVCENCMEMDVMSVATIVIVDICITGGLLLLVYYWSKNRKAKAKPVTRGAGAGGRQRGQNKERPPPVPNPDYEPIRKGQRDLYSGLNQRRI
T4 sequence (P09693 23-182, chain 2 of 3, further chain): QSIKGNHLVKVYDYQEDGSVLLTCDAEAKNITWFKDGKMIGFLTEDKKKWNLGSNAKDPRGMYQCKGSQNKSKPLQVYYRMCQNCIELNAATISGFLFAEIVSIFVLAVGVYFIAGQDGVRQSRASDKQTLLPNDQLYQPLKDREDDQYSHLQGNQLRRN
T4 sequence (P04234 22-171, chain 3 of 3, further chain): as the sequence (Q95LI8 22-171, chain 3 of 3, further chain) above, with V5I, K15N, V20I, T32S, N33D, N34I, A64T, N74S, L83V, R141H counted along it

Row | Binder | Kd [1] | koff [1] | kon [1] | Kd [2] | koff [2] | kon [2] | EC50 [3] | EC50 [4] | EC50 (nM), activation of Jurkat-TIGIT-luc cells with MC38/MSLN tumor cells [5] | EC50 (nM), activation of T cell activation signaling pathway, Jurkat-TIGIT-luc cells without tumor cells [5]
1 | B1 | 2 nM | 0.0042 s⁻¹ | 2.1e+06 M⁻¹ s⁻¹ | 0.7 nM | 0.00077 s⁻¹ | 1.1e+06 M⁻¹ s⁻¹ | 0.209 nM | 0.568 nM |  | 
2 | B2 | 6.1 nM | 0.0037 s⁻¹ | 610000 M⁻¹ s⁻¹ |  |  |  | 0.166 nM | 0.248 nM | 0.021 nM | 0.57 nM
3 | B3 | 5 nM | 0.00065 s⁻¹ | 130000 M⁻¹ s⁻¹ |  |  |  | 0.247 nM | 0.778 nM | 0.012 nM | 
4 | B4 | 21 nM | 0.0029 s⁻¹ | 140000 M⁻¹ s⁻¹ |  |  |  | 0.262 nM | 2.23 nM | 0.007 nM | 0.91 nM
5 | B5 | 1.3 nM | 0.0018 s⁻¹ | 1.4e+06 M⁻¹ s⁻¹ |  |  |  | 0.254 nM | 0.477 nM |  | 
6 | B6 | 3.6 nM | 0.0044 s⁻¹ | 1.2e+06 M⁻¹ s⁻¹ |  |  |  | 0.242 nM | 0.505 nM |  | 
